PMC2211523, “Atypical AAA+ Subunit Packing Creates an Expanded Cavity for Disaggregation by the Protein-Remodeling Factor Hsp104” (Cell, 2007)

What was measured:
[1] = target: the molecule itself; assay: cross-linking; glutaraldehyde (0.1%, 10 min), 0.2 μM monomer, with 1 mM ATP; 40 mM HEPES-KOH (pH 7.4), 150 mM KCl, 20 mM MgCl2, 1 mM DTT
[2] = target: the molecule itself; assay: cross-linking; glutaraldehyde crosslinking in the absence of nucleotide, 0.2 μM monomer; 40 mM HEPES-KOH (pH 7.4), 150 mM KCl, 20 mM MgCl2, 1 mM DTT
[3] = target: the molecule itself; assay: cryo-EM structure; 0.3 mg/ml protein in 20 mM HEPES (pH 7.5), 20 mM NaCl, 10 mM MgCl2, 1 mM DTT, 2 mM ATPγS; single particle reconstruction with 6-fold symmetry

B1: Hsp104^R495M (natural protein)
chain: not shown
notes: Hsp104 from S. cerevisiae with R495M (helix L2 of the coiled-coil domain); Made by QuikChange mutagenesis; construct as for wild-type Hsp104 (Shorter and Lindquist, 2004); source: purified as described (Shorter and Lindquist, 2004)
B1: binds [1].

B2: Hsp104^R444M (natural protein)
chain: not shown
notes: Hsp104 from S. cerevisiae with R444M (helix L2 of the coiled-coil domain); Made by QuikChange mutagenesis; construct as for wild-type Hsp104 (Shorter and Lindquist, 2004); source: purified as described (Shorter and Lindquist, 2004)
B2: binds [1].

B3: Hsp104^R765M (natural protein)
chain: not shown
notes: Hsp104 from S. cerevisiae with R765M (NBD2); Made by QuikChange mutagenesis; construct as for wild-type Hsp104 (Shorter and Lindquist, 2004); also called predicted NBD2 arginine finger mutant; source: purified as described (Shorter and Lindquist, 2004)
B3: binds [2].

B4: Hsp104^N728A (full-length Hsp104, sensor-1 mutation in NBD2) (natural protein)
chain: not shown
notes: Hsp104 from S. cerevisiae, full length, with the sensor-1 mutation N728A in NBD2; Forms a hexamer with ATPγS (cryo-EM); source: E. coli BL21-Codon Plus-RIL, purified as described (Hattendorf and Lindquist, 2002a)
In the case of B4, the “stoichiometry N” value [3] is reported as 6.

B5: Hsp104^R419M (natural protein)
chain: not shown
notes: Hsp104 from S. cerevisiae with R419M (helix L1 of the coiled-coil domain); Made by QuikChange mutagenesis; construct as for wild-type Hsp104 (Shorter and Lindquist, 2004); source: purified as described (Shorter and Lindquist, 2004)
B5: binds [1].

B6: Hsp104^R334M (natural protein)
chain: not shown
notes: Hsp104 from S. cerevisiae with R334M (NBD1); Made by QuikChange mutagenesis; construct as for wild-type Hsp104 (Shorter and Lindquist, 2004); also called predicted NBD1 arginine finger mutant; source: purified as described (Shorter and Lindquist, 2004)
In the case of B6, the “stoichiometry N” value [1] is reported as 6.

B7: Hsp104 Δ[…] (ΔN) (domain or fragment)
chain: not shown
notes: Hsp104 from S. cerevisiae lacking […] (N-terminal domain deleted); Forms a hexamer with ATPγS (cryo-EM); also called Hsp104 ΔN; N-terminal deletion mutant; source: E. coli BL21-Codon Plus-RIL, purified as described (Hattendorf and Lindquist, 2002a)
With B7 the “stoichiometry N” value [3] was 6.
